Some of the results follow.
Tested on: HSkMC (human skeletal muscle cells)
Experiment: cytotoxicity call (relative viability < 0.9)
Conditions: 10 µM

Row | Compound | cytotoxicity call
1 | CC(C(=O)O)C(=O)O | inactive
2 | C[C@H]1CN([C@@H](C)CO)C(=O)Cc2cc(NC(=O)CCCCCC(=O)Nc3ccccc3N)ccc2O[C@H]1CN(C)C(=O)Nc1ccccc1 | inactive
3 | C[C@@H]1CCCCO[C@@H](CN(C)C(=O)Nc2cccc3ccccc23)[C@@H](C)CN([C@@H](C)CO)C(=O)c2cc(N(C)C)ccc2O1 | inactive
4 | C[C@@H]1CN([C@@H](C)CO)C(=O)c2ccccc2-c2ccccc2CO[C@H]1CN(C)Cc1ccccc1C(F)(F)F | inactive
5 | COc1ccc(S(=O)(=O)N(C)C[C@@H]2Oc3ccc(N(C)C)cc3CC(=O)N([C@H](C)CO)C[C@H]2C)cc1 | inactive
6 | C[C@H](CO)N1C[C@H](C)[C@@H](CN(C)CC2CCCCC2)Oc2c(NC(=O)c3nc4ccccc4s3)cccc2C1=O | inactive
7 | C[C@H](NC(=O)C[C@H]1C=C[C@@H](NC(=O)CN2CCOCC2)[C@@H](CO)O1)c1ccccc1 | inactive
8 | C[C@H](CO)N1C[C@H](C)[C@H](CN(C)Cc2ccc(Oc3ccccc3)cc2)Oc2ccc(NC(=O)CCCCCC(=O)Nc3ccccc3N)cc2CC1=O | inactive
9 | C[C@H]1CN([C@@H](C)CO)S(=O)(=O)c2ccc(C3=CCCCC3)cc2O[C@H]1CN(C)C(=O)C1CCOCC1 | inactive
10 | CCNC(=O)C[C@@H]1CC[C@@H]2[C@H](COC[C@H](O)CN2S(=O)(=O)c2ccc(Oc3ccccc3)cc2)O1 | inactive
11 | Cc1noc(C)c1NC(=O)N(C)C[C@H]1Oc2ccc(NC(=O)Nc3ccc(C(F)(F)F)cc3)cc2C(=O)N([C@@H](C)CO)C[C@H]1C | inactive

From the antibiotic and cytotoxicity screens of Wong et al. (2023)
